PubChem BioAssay AID504339 (National Center for Advancing Translational Sciences (NCATS), 2011)
About 17,000 (4.4%) of roughly 390,000 compounds were called active. The shares of active, inactive and inconclusive entries below differ from those in the screen. The call rests on the fitted dose curve; in most records, active means well fitted inhibition curve with a large enough effect; inconclusive means small, poorly fitted or top-dose-only effect; inactive means no such curve, though single readings can be large or run the other way. Potencies of inconclusive entries are doubtful fits and often do not repeat.

Target: Lysine-specific demethylase 4A (Homo sapiens) (UniProt O75164)
Test: qHTS Assay for Inhibitors of JMJD2A-Tudor Domain; further: nearly all actives have a fitted effect of over 50% in size
Details: AlphaScreen JMJD2A-Tudor / H3K4me3 peptide binding; activity change, negative = inhibition: at 114 µM (top of the series)
On the % scale 0 is the no-effect control and ±100 the full control effect; potency means the concentration at half of the fitted maximal effect; tags describe the fitted curve by direction and shape.

UniProt O75164, sequence (O75164 whole entry, looked up, the tested form may be a part): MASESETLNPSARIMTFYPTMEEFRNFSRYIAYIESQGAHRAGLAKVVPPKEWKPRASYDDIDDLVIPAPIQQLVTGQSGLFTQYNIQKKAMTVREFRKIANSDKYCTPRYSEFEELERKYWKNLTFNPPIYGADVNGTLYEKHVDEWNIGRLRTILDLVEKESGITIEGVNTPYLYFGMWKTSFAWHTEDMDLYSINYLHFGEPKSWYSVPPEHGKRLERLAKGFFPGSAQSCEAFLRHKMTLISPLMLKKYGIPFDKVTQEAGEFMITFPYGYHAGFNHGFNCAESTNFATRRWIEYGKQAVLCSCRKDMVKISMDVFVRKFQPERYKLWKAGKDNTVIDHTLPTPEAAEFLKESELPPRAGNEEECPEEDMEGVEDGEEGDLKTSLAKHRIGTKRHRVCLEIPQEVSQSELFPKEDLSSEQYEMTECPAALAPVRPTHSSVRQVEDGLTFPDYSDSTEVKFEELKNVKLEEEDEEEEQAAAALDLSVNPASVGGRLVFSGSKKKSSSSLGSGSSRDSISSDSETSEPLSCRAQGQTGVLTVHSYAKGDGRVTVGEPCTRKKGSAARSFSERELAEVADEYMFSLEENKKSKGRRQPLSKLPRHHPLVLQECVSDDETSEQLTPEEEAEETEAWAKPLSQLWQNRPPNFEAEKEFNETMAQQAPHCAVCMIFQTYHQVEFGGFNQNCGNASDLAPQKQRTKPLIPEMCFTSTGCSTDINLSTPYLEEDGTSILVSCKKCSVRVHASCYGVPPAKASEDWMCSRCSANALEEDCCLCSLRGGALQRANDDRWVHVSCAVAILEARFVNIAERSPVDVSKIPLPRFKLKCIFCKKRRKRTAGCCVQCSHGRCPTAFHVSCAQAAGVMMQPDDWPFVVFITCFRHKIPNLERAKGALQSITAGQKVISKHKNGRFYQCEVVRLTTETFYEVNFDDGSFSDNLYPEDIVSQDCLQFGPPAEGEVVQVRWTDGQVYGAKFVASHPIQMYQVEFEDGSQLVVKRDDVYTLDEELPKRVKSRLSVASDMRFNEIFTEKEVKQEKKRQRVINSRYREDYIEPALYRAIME

Potency, inconclusive:
Cc1nc2c(cnn2-c2ccccc2Cl)c(=O)n1-c1ccc(N2CCC(C)CC2)cc1 35.5 µM [inhibitor, partial curve]
O=C(/C=C/NNC(=O)c1ccccc1)c1ccc([N+](=O)[O-])cc1 12.6 µM [inhibitor, partial curve]
COc1ccc2sc(-c3ccc(N(C)C)cc3)c(-c3cnc(OC)nc3)c2c1 28.2 µM [inhibitor, partial curve]
COc1ccc(-c2cnn3c(N)c(S(=O)(=O)C(C)(C)C)cnc23)cc1 56.2 µM [inhibitor, partial curve]
CCOc1ccc(NC(=O)C2CCN(C(=O)N3CC(C)Oc4ccc(Cl)cc43)CC2)cc1 (stereo not given) 56.2 µM [inhibitor, partial curve]
Cn1cc(CC(=O)N2CCN(c3ccccc3F)CC2)c2ccccc21 50.1 µM [inhibitor, partial curve]
COc1ccc(/C=C/C(=O)N2CCN(c3ccccn3)CC2)c2ccccc12 56.2 µM [inhibitor, partial curve]
CC(=O)c1ccc(NC(=O)CCc2c(C)nn(-c3ccc(N4CCOCC4)nn3)c2C)cc1 12.6 µM [inhibitor, partial curve, poor fit]
NNc1nccc(Nc2ccccc2C(=O)O)n1 70.8 µM [inhibitor, single point]
NC(=S)N/N=C1\CC(n2nnn(-c3cccc(Cl)c3)c2=S)C2COC1O2 (stereo not given) 50.1 µM [inhibitor, partial curve]
COc1cc(COCC(O)CN2CCN(CCN3C(=O)c4cccc5cccc(c45)C3=O)CC2)cc(OC)c1OC (stereo not given) 56.2 µM [inhibitor, partial curve]
COc1ccc(N(C)S(=O)(=O)c2cccc(C(=O)NC3CCCCC3C)c2)cc1 (stereo not given) 39.8 µM [inhibitor, single point]
COc1ccc(C(=O)NC(=S)Nc2cccc(Cl)c2N2CCOCC2)cc1[N+](=O)[O-] 14.1 µM [inhibitor, full curve, poor fit]
CCOc1ccccc1N1Cc2ccccc2C1 79.4 µM [inhibitor, single point]
CCc1ccc(-c2nc(CN3CCC(C(=O)NCc4ccco4)CC3)c(C)o2)cc1 56.2 µM [inhibitor, partial curve]
O=C(NCc1ccccc1)c1cc2ccc(O)cc2oc1=O 31.6 µM [inhibitor, partial curve]
Oc1c(N=Nc2ccccc2)sc2ccccc12 3.98 µM [inhibitor, full curve]
O=C(O)CCSCC(=O)c1ccc2c(c1)OCCO2 50.1 µM [inhibitor, partial curve]
COc1ccc(Nc2nc(N)nc(CSc3n[nH]c(-c4ccccc4)n3)n2)cc1 89.1 µM [inhibitor, partial curve]
Cn1c(=O)c2c(nc(SCCCO)n2Cc2ccccc2Cl)n(C)c1=O 89.1 µM [inhibitor, partial curve]
CC(C)c1ccc(NC(=O)Nc2cc3sccc3n2C)cc1 44.7 µM [inhibitor, partial curve]
COc1ccc(-c2noc(CSc3nc(-c4ccccc4)cc(=O)[nH]3)n2)cc1OC 79.4 µM [inhibitor, single point]
CCn1c(=O)c2cc(C(=O)NCCN(C)C)sc2c2ccccc21 22.4 µM [inhibitor, partial curve]
COc1ccc(C)cc1NC(=O)c1cc(S(=O)(=O)N2CCCC2)cn1C 100 µM [inhibitor, partial curve]
Cc1c(C(=O)NCc2ccc(Cl)cc2)sc2nc3n(c(=O)c12)CCC3 89.1 µM [inhibitor, partial curve]
Cc1ccc(S(=O)(=O)N(CC(O)Cn2c3ccccc3c3ccccc32)c2cccc(C(=O)NCCO)c2)cc1 (stereo not given) 35.5 µM [inhibitor, partial curve, poor fit]
COc1ccc(-n2c(=S)[nH]c3[nH]ncc3c2=O)cc1 25.1 µM [inhibitor, full curve]
Cc1cc(NC(=O)COC(=O)C2CCN(S(=O)(=O)c3ccccc3)CC2)c([N+](=O)[O-])cc1C 50.1 µM [inhibitor, partial curve]
Cn1cccc1-c1cc2n(n1)CCC(=O)N2CC(=O)Nc1ccc(F)cc1Cl 56.2 µM [inhibitor, partial curve]
COc1ccc(-c2ccc(SCC(=O)Nc3nccs3)nn2)cc1OC 89.1 µM [inhibitor, partial curve]
CCOc1ccc(CN2CCCC(N3CCN(c4ccc(OC)cc4)CC3)C2)cc1 (stereo not given) 63.1 µM [inhibitor, partial curve, poor fit]
CC(C)CC(=O)Nc1ccccc1N1CCOCC1 89.1 µM [inhibitor, single point]
O=C(O)CC/C(=C\c1ccc(N2CCOCC2)c([N+](=O)[O-])c1)c1nc2ccccc2s1 56.2 µM [inhibitor, partial curve]
OCCC1CN(Cc2nc3ccccc3s2)CCN1C1CCCC1 (stereo not given) 3.98 µM [inhibitor, single point]
Cc1ccc(C(=O)c2cc3c(cc2[N+](=O)[O-])OCCO3)cc1 50.1 µM [inhibitor, partial curve, poor fit]
CCN(CC)c1ccc(S(=O)(=O)N2CCOCC2)cc1NC(=O)CSC(=S)N1CCCC1 56.2 µM [inhibitor, partial curve]
COc1ccc(OC)c(S(=O)(=O)Nc2cc(OC)c(Cl)cc2OC)c1 28.2 µM [inhibitor, single point]
CC1(C)C(=O)Nc2ccccc2N1C(=O)COc1ccc(S(=O)(=O)N2CCOCC2)cc1Cl 56.2 µM [inhibitor, partial curve]
Nc1ccc2c(c1)C(=O)C(=O)c1ccccc1-2 56.2 µM [inhibitor, partial curve]
Cc1nnc2c(NCC(C)c3ccccc3)nc3ccccc3n12 (stereo not given) 2.24 µM [inhibitor, full curve, poor fit]
NC(=O)c1ccc(NC(=O)c2cncn2-c2ccccc2)cc1 28.2 µM [inhibitor, single point]

Potency, active:
C=CCn1c(-c2cccc(S(=O)(=O)N(CC)CC)c2)n[nH]c1=S 12.6 µM
CC(C)C(=O)OCC(=O)Nc1ccc(N=Nc2ccccc2)cc1 35.5 µM
CC12CCC(c3c1nc1ccccc1[n+]3[O-])C2(C)C (stereo not given) 44.7 µM
CN(C)c1ccc(C=c2c3ccccc3n3c2c2c([n+]3C)CCCC2)cc1 28.2 µM
CCN(CC)c1ccc(/C=N/NS(=O)(=O)c2ccc(C)c([N+](=O)[O-])c2)cc1 35.5 µM
COc1ccccc1COCC(O)CNCC1(N2CCCCC2)CCCCC1 (stereo not given) 1.78 µM
O=C(NNS(=O)(=O)c1ccc2ccccc2c1)c1cccnc1 7.94 µM
Nc1c(C(=O)NCC2CCCO2)sc2nc3c(c(-c4ccco4)c12)CC/C3=C\c1ccco1 (stereo not given) 2 µM
CN(C)c1ccc(N=c2sc3ccccc3n2C)cc1 10 µM
CC(C)CCNc1nc(N2CCCC2)c2c(c1C#N)CCN(C)C2 44.7 µM

Activity change, negative = inhibition, inactive:
CC(=O)Nc1ccc(S(=O)(=O)N[C@@H](C)C(=O)Nc2ccc(N3CCOCC3)cc2)cc1 -9.28%
COc1ccccc1-n1cnnc1SCC(=O)Nc1cccc(S(N)(=O)=O)c1 -11%
Cc1cccc(OCc2nc(CC(=O)Nc3ccc(C)c(C)c3)cs2)c1 -0.662%
COc1cccc(CNC(=O)c2cccc(NC(=O)C3=C(C)OCCS3)c2)c1 -25%
O=c1c2sc3ccccc3c2n(Cc2cccc(Cl)c2)c(=O)n1Cc1ccco1 -23.2%
O=C(COC(=O)CCCOc1ccc(Cl)cc1Cl)Nc1cccc(Cl)c1 26.4%
CCOC(=O)c1cc(-c2cccc([N+](=O)[O-])c2)on1 -11.6%
Cc1ccc(C(=O)Nc2ccc(S(=O)(=O)N(Cc3ccccc3)c3ccccc3)cc2)cc1 -16.2%
O=C(NNC(=O)c1ccccn1)c1cccc([N+](=O)[O-])c1 -15.6%
Cc1ccc(Sc2ccc(N3CCC(C(=O)Nc4ccc(Cl)cc4)CC3)nn2)cc1 1.37%
COc1ccc(NC(=O)COC(=O)c2cc(C)oc2C)c([N+](=O)[O-])c1 -21.9%
N#CC(=C=[N-])C1=C(C#N)C(c2ccccc2F)C([n+]2ccccc2)C(O)(C2CC2)N1 (stereo not given) -33.8%
O=C(Nc1ccc(OC(F)F)cc1)c1cc(S(=O)(=O)N2CCOCC2)ccc1N1CCCC1 -11.3%
COc1ccc(-c2nc3n(n2)C(c2ccccc2)C(C(=O)Nc2cccnc2)=C(C)N3)cc1 (stereo not given) -10.3%
CCOC(=O)N1CCN(CCC(=O)Nc2cccc(F)c2)CC1 -8.3%
O=C1CNC(=O)/C1=C/c1ccccc1 0%
CCCC(c1nnnn1C1CCCC1)N1CCN(c2ccccc2F)CC1 (stereo not given) -4.79% [at 11.4 µM]
CCCC(c1nnnn1CS(=O)(=O)c1ccc(C)cc1)N1CCN(c2ccccc2)CC1 (stereo not given) -17.3%
CCOC(=O)C1C2C=CC3(CN(Cc4ccccc4)C(=O)C13)O2 (stereo not given) -3.76%
